PubChem BioAssay AID1963576 (National Center for Advancing Translational Sciences (NCATS), 2024)
In all, about 46,000 compounds went through this assay and about 60 (0.1%) were called active. Roughly 3% stayed inconclusive and do not appear here. Calls come from the whole dose curve; as a rule, active = well fitted inhibition curve with a large enough effect; inconclusive = small, poorly fitted or top-dose-only effect; inactive = no such curve, though single readings can be large or run the other way. Some of the results follow.

assay: Primary qHTS assay for Inhibitors of ovarian cancer metastasis using an organotypic tumor microenvironment (TME) model.; note: nearly all actives have a fitted effect of over 65% in size;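 for activity change, negative = inhibition: plate controls were DMSO wells for no effect and tomatine positive control wells for full effect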; conditions: SKOV3ip1-GFP adhesion/invasion on 3D omental model, fluorescence; series mostly up to 45.8 µM; activity change, negative = inhibition: at the top concentration
How it was run: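 Adhesion/invasion was scored as fixed GFP-labeled SKOV3ip1 cell counts (488/509 nm), normalized to DMSO and tomatine controls. Cancer cells in serum-free medium, with four compound doses (0.36-46 umol/L), sat 2 hr at RT then 16 hr at 37 C on a 48 hr fibroblast/mesothelial/ECM culture.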

Activity change, negative = inhibition, inactive:
CC(=O)NCC(c1ccc2c(c1)OCO2)N1CCN(c2ccccc2)CC1 (stereo unspecified) 14.2%
CCc1cccc(C)c1NC(=O)c1cc(S(=O)(=O)NCc2ccccc2Cl)ccc1F 2.23%
COc1ccccc1CNC(=O)CCn1c(=O)c2ccccc2n(CC(=O)Nc2ccc(C)cc2Cl)c1=O 31.4%
Fc1ccc(C(NCCc2ccc(Cl)cc2)c2nnc(-c3ccccc3)o2)c(Cl)c1 (stereo unspecified) 0.367%
Cc1c(NC(=O)Nc2ccc(Br)cc2F)sc2nc3n(c(=O)c12)CCC(C)CC3 (stereo unspecified) 4.39%
CN(C)CCCN(C(=O)c1ccc(Br)s1)c1nc2ccc(F)cc2s1 0.498%
Cc1ccc2cccc(NC(=O)COc3cc(C)c(Cl)c(C)c3)c2n1 -8.01%
COc1ccc(CCNC(=O)Cn2c(=O)nc(-c3ccccc3)c3ccccc32)cc1OC 7.01%
COc1ccc(N(CC(=O)NCc2ccccc2Cl)S(=O)(=O)c2c(C)nn(C)c2C)cc1 -6.46%
CCOc1ccc(C(=O)c2cn(CC(=O)Nc3ccc(F)cc3)c3cc4c(cc3c2=O)OCO4)cc1 0.308%
CCCSCCCNC(=O)C1CCCN(c2nn3cc(-c4ccc(OC)cc4)nc3s2)C1 (stereo unspecified) -3.33%
Cn1c(=O)c(=O)n(C)c2cc(NC(=O)c3cccc(F)c3)c(Cl)cc21 -0.919%
Cc1nn(CC(=O)Nc2ccccc2C(F)(F)F)c(=O)c2cccn12 5.12%
COc1ccc(NC(=O)c2ccc3nc(CCc4ccccc4)oc3c2)c(OC)c1 -8.24%
Cc1ccccc1NC(=O)N1CCc2c(sc3c2CCCC3)C1c1ccccc1 (stereo unspecified) -2.86%
O=C(Cn1c(=O)oc2cc(Cl)ccc21)Nc1cccc(C(F)(F)F)c1 -0.8%
CCC(=O)Nc1ccc(CC)cc1-c1nc2ccccc2n(CC(=O)Nc2cccc(Cl)c2)c1=O -1.4%
COc1ccc(CCNC(=O)CCCCn2c(=O)c3ccccc3n(Cc3ccccc3C)c2=O)cc1OC 9.65%
COCCNC(=O)CCc1c(C)nc2c(-c3ccc(F)cc3)c(C)nn2c1C -1.23%
CCS(=O)(=O)c1ncc(N(Cc2ccccc2)Cc2ccco2)c(C(=O)Nc2ccc(C)c(C)c2)n1 -0.229%
CCOc1ccc(NC(=O)c2ccc3c(=O)n4nc(Nc5ccccc5C)sc4nc3c2)cc1 2.27%
CCn1c(NCc2ccc(OC)cc2)nc2ccccc21 2.55%
Cc1cc2c(cc1C)NC(CC(=O)Nc1ccccc1)C(=O)N2 (stereo unspecified) -4.24%
CCN(Cc1ccccc1)C(=O)Cn1cc(S(=O)(=O)Cc2cccc(Cl)c2)c2ccccc21 24.9%
Cc1ccc(O)c(NC(=O)c2ccc(Br)c(S(=O)(=O)N3CCCCC3)c2)c1 -5.43%
Cc1ccccc1CSc1nc2cc(C(=O)NC3CCCC3)ccc2c(=O)n1Cc1ccccc1 -4.89%
CC1CCN(C(=O)CSc2c(C(C)C)cnc3c2c(=O)n(C)c(=O)n3C)CC1 5.51%
COC(=O)CC1Oc2ccccc2-n2cc(-c3ccccc3)nc21 (stereo unspecified) 5.05%
CCc1ccc(NC(=O)C(=O)NCC(c2cccnc2)N2CCN(Cc3ccccc3)CC2)cc1 (stereo unspecified) -15.7%
CC(=O)Nc1nonc1-c1nnc(SCC(=O)Nc2ccccc2)n1-c1ccccc1 15.5%
CCCCOc1ccc(CNC(=O)c2ccc(NC(=O)N3CCCCc4ccccc43)cc2)cc1 0.937%
CCC(=O)Nc1ccc2nc(SCCOc3ccccc3)sc2c1 -17.8%
CCOc1ccc(CNS(=O)(=O)c2ccc3[nH]c(=O)ccc3c2)cc1 -4.66%
CCC(=O)N1c2ccccc2CC1C(=O)NCCN1CCN(c2cccc(C(F)(F)F)c2)CC1 (stereo unspecified) -3.62%
Cc1ccc(C)c(N2CCN(Cc3nnc(-c4ccc5c(c4)OCO5)o3)CC2)c1 8.19%
CNS(=O)(=O)c1cn(CC(=O)Nc2cccc(OC)c2)cc1S(=O)(=O)NC 1.85%
Cc1c(Cl)cccc1NC(=O)c1noc2c1CCCC2 -8.42%
Cc1ccc(NC(=O)CSc2ncn[nH]2)cc1C 8.65%
CCOc1ccccc1NC(=O)CCc1c(C)nn(-c2ccc(N3CCOCC3)nn2)c1C 2.46%
COC(=O)c1ccc(-n2c(CCC(=O)O)ccc2-c2ccc(C)cc2)cc1 -5.02%
Cc1ccc(-n2cc(-c3ccccc3)nc2S(=O)(=O)CC(=O)Nc2ccc(F)cc2)cc1 -12.3%
COc1ccc(-n2nc(C(=O)Nc3ccc(C)cn3)c3c4ccccc4n(C)c3c2=O)cc1 3.5%
CCCCSCCCNC(=O)c1cn(C)c2ccc(S(=O)(=O)N3CCCCC3)cc2c1=O -2.43%
Cc1ccc(N(CC(=O)NCc2ccc(F)cc2)S(=O)(=O)c2c(C)nn(C)c2C)cc1 -13.8%
Cc1ccc(C)c(N2CCN(C(=O)C3CCCN(S(=O)(=O)c4cccc5nsnc45)C3)CC2)c1 (stereo unspecified) 20.3%

outcome, inactive:
CCOC(=O)c1c(S(=O)(=O)NCC(=O)N2CCN(c3ccccc3)CC2)c(C)n(C)c1C
CCOc1ccccc1CNC(=O)CCCn1ncn2c(cc3occc32)c1=O
Cc1ccc(CCNC(=O)CCn2nc(-c3ccccc3)ccc2=O)cc1
CCCCN(CC)CCNC(=O)CN1C(=O)COc2ccc(S(=O)(=O)N3CCCC3)cc21
O=C(NCCc1ccccc1)c1ccc(Cn2c(SCc3cccc(F)c3)nc3cccnc32)cc1
CCOc1ccc(C(=O)Nc2c(C(=O)c3ccc(OC)cc3)oc3ccccc23)cc1
CCc1ccccc1NC(=O)Cn1c(=O)n(-c2ccc(C)cc2)c(=O)c2c1c1cc(C)ccc1n2C
Cc1nc2ncnn2c(C)c1CCC(=O)N1CCN(c2ccccc2)CC1
CCCCCn1cc2c(c1-c1ccc(Br)cc1)c(=O)n(C)c(=O)n2C
COc1cc(C(CC(=O)Nc2ccc(F)cc2F)N2Cc3ccccc3C2=O)cc(OC)c1OC (stereo unspecified)
Cc1ccc(-n2nc(CO)c(C(=O)NC(C)CCCc3ccccc3)n2)cc1C (stereo unspecified)
O=C(CCCn1c(=O)c2cccn2c2ccc(F)cc21)NCc1ccc(Cl)cc1
COc1ccccc1OC(C)C(=O)Nc1c(C(=O)c2ccc(Cl)cc2)oc2ccccc12 (stereo unspecified)
Cn1c(=O)oc2cc(S(=O)(=O)NC(Cc3ccccc3)C(=O)NCc3ccc(F)cc3)ccc21 (stereo unspecified)
CCOC(=O)Cn1c(=O)n(CC2CCCO2)c2nc(-c3cccc(C)c3)nc(C(N)=O)c21 (stereo unspecified)
COc1cccc(CNC(=O)c2ccc3c(c2)nnn3C2CCCC2)c1
